# According to PubChem BioAssay AID887 (National Center for Advancing Translational Sciences (NCATS), 2007):
# Several values for one entry are separate records, joined by “and”; a condition that tells them apart may be missing. Equal entries are not always repeated. Screen size: about 74,000 compounds; about 1,100 (1.5%) were called active. The inconclusive results got no clear call from the source; some entries with a clear call stand among them for comparison. Calls follow the shape of the dose curve; as a rule, active = well fitted inhibition curve with a large enough effect; inconclusive = small, poorly fitted or top-dose-only effect; inactive = no such curve, though single readings can be large or run the other way. No potency is given beside an inconclusive call; the fits are too rough.
# Target: Polyunsaturated fatty acid lipoxygenase ALOX15 (Homo sapiens) (UniProt P16050)
# Chain of UniProt P16050 (P16050 whole entry, looked up): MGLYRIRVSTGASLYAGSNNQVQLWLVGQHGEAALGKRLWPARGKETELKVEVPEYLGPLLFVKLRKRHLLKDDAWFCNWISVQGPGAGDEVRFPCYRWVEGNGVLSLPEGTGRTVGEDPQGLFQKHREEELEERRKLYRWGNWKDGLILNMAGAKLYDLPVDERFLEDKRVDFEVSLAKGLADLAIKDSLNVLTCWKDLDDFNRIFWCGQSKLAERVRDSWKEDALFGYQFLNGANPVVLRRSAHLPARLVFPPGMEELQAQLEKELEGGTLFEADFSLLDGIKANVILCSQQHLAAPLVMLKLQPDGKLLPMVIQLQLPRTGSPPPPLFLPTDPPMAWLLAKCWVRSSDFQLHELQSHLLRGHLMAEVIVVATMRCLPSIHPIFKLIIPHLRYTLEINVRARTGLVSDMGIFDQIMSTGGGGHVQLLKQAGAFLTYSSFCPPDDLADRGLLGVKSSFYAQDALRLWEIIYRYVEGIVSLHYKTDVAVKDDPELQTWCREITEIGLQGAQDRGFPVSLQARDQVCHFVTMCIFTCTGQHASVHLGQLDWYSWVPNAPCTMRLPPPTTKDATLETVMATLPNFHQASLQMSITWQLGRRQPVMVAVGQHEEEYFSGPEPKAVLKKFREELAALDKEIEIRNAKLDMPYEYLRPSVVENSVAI
# Experiment: qHTS Assay for Inhibitors of 15-hLO (15-human lipoxygenase); also: nearly all actives have a fitted effect of over 55% in size
# Conditions: purified 15hLO-1, xylenol orange hydroperoxide absorbance; activity change, negative = inhibition: at 57.1 µM (top of the series) unless noted
# Procedure, shortened: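 Readout: Fe(III)-xylenol orange absorbance, 573-to-405 nm ratio as reaction progress. Enzyme 40 nM purified human 15hLO-1, substrate 50 uM arachidonic acid, 6 min RT after 15 min compound preincubation; Hepes pH 7.5 buffer with Triton X-100.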
# % is scaled to controls: 0 for no effect and ±100 for the full control effect; potency is read from the fitted curve at half-maximal effect; tags tell the direction and shape of the fitted curve.
Structure (SMILES),Potency,"activity change, negative = inhibition"
CCOC(=O)c1c(NC(=O)c2ccco2)sc2c1CCCCC2,"inconclusive [inhibitor, single point]",
O=C(Nc1c2c(nn1-c1ccc(F)cc1)CSC2)c1ccc(S(=O)(=O)N2CCOCC2)cc1,inactive,
COc1ccc2c(c1)OCC(Cc1ccc(OC)c(OC(C)=O)c1)C2=O (stereo unspecified),inactive,
COC(=O)CNC(=O)COC(=O)c1cc(Cl)cc(Cl)c1N,inactive,
C=CCSC1=C(C#N)C(c2ccccc2C)CC(=O)N1 (stereo unspecified),"inconclusive [inhibitor, single point]",
O=C1CC(/C=C/c2ccco2)=Nc2ccccc2N1,active: 5.01 µM,
COC(=O)c1sc(N)c(C(=O)OC)c1CSc1nc2sc3c(c2c(=O)n1C)CCC3,"inconclusive [inhibitor, full curve]",
CC(=O)NCCNc1ncnc2ccc(-c3ccoc3)cc12,inactive,
CC(=O)Cc1nsc(NC(=O)c2ccc(-c3ccc(Cl)c(C(F)(F)F)c3)o2)n1,"inconclusive [inhibitor, partial curve, poor fit]",
COc1ccccc1NC(=O)CSc1nnc(-c2ccco2)n1Cc1ccco1,inactive,
COc1ccc(N(CC(=O)N2CCc3ccccc32)S(=O)(=O)c2c(C)n[nH]c2C)cc1,"inconclusive [inhibitor, single point]",
CCC(=O)Nc1nc2cc(OC)ccc2s1,inactive,
Cc1cc(N=Cc2c(CO)cnc(C)c2O)c(N=Cc2c(CO)cnc(C)c2O)cc1C.[Zn],"inconclusive [inhibitor, single point]",
Cc1[nH]nc2c1C(c1ccc(-c3ccccc3C#N)o1)C(C#N)=C(N)O2 (stereo unspecified),"inconclusive [inhibitor, partial curve]",
CC1Cc2ccccc2N1C(=O)CSc1nnc2n1C(C)(C)Cc1ccccc1-2 (stereo unspecified),"inconclusive [inhibitor, single point]",
Cc1ccccc1N1C(=O)c2cc(S(N)(=O)=O)c(Cl)cc2NC1C (stereo unspecified),inactive,
COC1C=CO[C@@]2(C)Oc3c(C)c(O)c4c(O)c(c(C=NN5CCN(C)CC5)c(O)c4c3C2=O)NC(=O)/C(C)=C\C=CC(C)C(O)[C@@H](C)C(O)C(C)[C@H](OC(C)=O)C1C (stereo partly specified),"inconclusive [inhibitor, single point]",
CCn1c(C(=O)N2CCC(C(=O)NCCCSC3CCCCC3)CC2)cc2sccc21,"inconclusive [inhibitor, single point]",
CCN(C(=O)CN1CCN(c2ccc(O)cc2)CC1)c1c(N)n(Cc2ccccc2)c(=O)[nH]c1=O,"inconclusive [inhibitor, single point]",
CCN1CCN(C(=O)C(NS(=O)(=O)c2ccc3nc(C)sc3c2)C(C)C)CC1 (stereo unspecified),"inconclusive [inhibitor, full curve, poor fit]",
COc1ccc(-n2c(Cc3cccn3C)nnc2SCC(=O)Nc2cccc(Cl)c2)cc1,"inconclusive [inhibitor, full curve, poor fit]",
CCCCCSc1nnc2c(n1)OC(C)N(C(C)=O)c1ccccc1-2 (stereo unspecified),"inconclusive [inhibitor, partial curve]",
COc1ccccc1N=c1oc2c(OC)cccc2cc1C(=O)NCc1ccco1,inactive,
O=C(CSc1ncn(-c2ccccc2)n1)Nc1nc2c(s1)CCCC2,"inconclusive [inhibitor, single point]",

Structure (SMILES),Potency,"activity change, negative = inhibition"
COC(=O)c1ccc(NC(=O)CSc2nnc(Cc3cccn3C)n2-c2ccc(F)cc2)cc1,"inconclusive [inhibitor, single point]",
CCCC1(C(=O)OC)NC(c2ccc(OC)c(OC)c2)C2C(=O)N(c3ccc4c(c3)OCO4)C(=O)C21 (stereo unspecified),"inconclusive [inhibitor, single point]",
COc1ccc2cc3cc(C(=O)NCc4ccccn4)oc3nc2c1,inactive,
N=c1c(C(=O)NCc2ccco2)cc2c(=O)n3ccccc3nc2n1Cc1ccccc1,"inconclusive [inhibitor, partial curve]",
O=c1cc(CO)oc(C(Nc2ccccn2)c2ccsc2)c1O (stereo unspecified),"inconclusive [inhibitor, full curve]",
Nc1ccc2cc3ccccc3cc2c1,"inconclusive [inhibitor, partial curve]",
N#Cc1ccccc1OCC(=O)OCC(=O)c1ccc2c(c1)NC(=O)CO2,"inconclusive [inhibitor, full curve, poor fit]",
CC(=O)c1c(N2CCN(c3ccccc3)CC2)nc(=S)n(-c2ccccc2)c1C,"inconclusive [inhibitor, single point]",
O[C@H](C[C@@H]1CCCCN1)c1ccc2c(c1)oc1ccccc12,,inactive: 8.4% [at 11.4 µM]
CCOC(=O)OCC1OC(c2cc(C)cc(C)c2)C=CC1OC(=O)OCC (stereo unspecified),,inactive: -5.11% [at 11.4 µM]
N#CC1=C(N)OC(c2ccccc2)=C(C#N)C1c1ccc2c(c1)OCO2 (stereo unspecified),active: 31.6 µM,
NC(N)=N/N=C\c1ccc(C2CCNCC2)cc1,,inactive: 9.1% [at 11.4 µM]
CN1CCN(Cc2c(O)ccc3c(=O)c(Oc4ccccc4Cl)c(C(F)(F)F)oc23)CC1,"inconclusive [inhibitor, partial curve]",
CCOc1ccc2[nH]c(=O)c(CN(Cc3ccc(F)cc3)C(=O)c3ccco3)cc2c1,"inconclusive [inhibitor, single point]",
Nc1nc(N)c2[nH]cnc2n1 (tested in a mixture with another compound),,inactive: 4.37% [at 11.4 µM]
CC(Nc1nc(N2CCCC2)nc2ccccc12)c1ccccc1 (stereo unspecified),"inconclusive [inhibitor, single point]",
Cc1n[nH]c(=O)nc1NCC1CCCO1 (stereo unspecified),"inconclusive [inhibitor, single point]",
COc1ccc(CNc2ccnc(-c3ccc4c(c3)OCO4)n2)c(OC)c1,"inconclusive [inhibitor, single point]",
O=C(Oc1cccc2cccnc12)c1cccs1,"inconclusive [inhibitor, full curve, poor fit]",
Cc1cc(Cn2cnc3c2C[C@@H](C(=O)O)N(C(=O)C(c2ccccc2)c2ccccc2)C3)ccc1N(C)C,"inconclusive [inhibitor, single point]",
NC[C@@H]1O[C@H](c2ccccc2)Cc2c1ccc(O)c2O,inactive,
CCCCOc1cc(C[C@@H]2CNC(=O)N2)ccc1OC,inactive,
O=C(c1cc(Br)ccc1O)c1cc(Br)ccc1O,"inconclusive [inhibitor, partial curve]",
COc1ccccc1CNc1ncncc1-c1ccc(C(=O)N(C)C)cc1,"inconclusive [inhibitor, partial curve]",

Structure (SMILES),Potency,"activity change, negative = inhibition"
CC(=O)Nc1cccc(NC(=O)c2ccco2)c1,inactive,
Cc1ccc(Nc2nc(Oc3ccc(OCc4ccccc4)nn3)nc(N3CCOCC3)n2)cc1,"inconclusive [inhibitor, partial curve]",
COc1ccc(CNc2cc(C)nc3ncnn23)c(OC)c1,inactive,
N#CCCn1c(=O)c(-c2cccs2)nc2cnc(OCc3ccccc3)nc21,inactive,
O=C(NCCC1=CCCCC1)C1CCN(S(=O)(=O)c2cccs2)CC1,"inconclusive [inhibitor, partial curve]",
Cc1ccc(C(=O)O)cc1[N+](=O)[O-],inactive,
O=C(Nc1ccc(Br)cn1)c1ccc2nccnc2c1,inactive,
CN1CCC(CNC(=O)c2ccc(Cc3nc4ccccc4[nH]3)cc2)CC1,inactive,
COCCn1c(=O)c(-c2cccc(C#N)c2)nc2cnc(Nc3ccccc3)nc21,inactive,
Cc1ccc(S(=O)(=O)c2c(N)n(/N=C/c3ccco3)c3nc4ccccc4nc23)cc1C,"inconclusive [inhibitor, partial curve]",
COc1cc(C2C(C(=O)N3CCOCC3)=C(C)NC3=C2C(=O)CCC3)ccc1OC(C)=O (stereo unspecified),inactive,
Cn1c(C(=O)N2CCCC(C(=O)NCCCc3ccccc3)C2)cc2sccc21 (stereo unspecified),inactive,
Cn1c(NC(=O)c2ccccc2Br)cc(=O)n(C)c1=O,active: 25.1 µM,
O=C(c1cc(-c2cccc(O)c2)on1)N1CCc2ccccc2C1,"inconclusive [inhibitor, partial curve]",
COc1cc(C2CC(=O)N3CN(Cc4ccco4)CSC3=C2C#N)ccc1OCc1ccccc1 (stereo unspecified),active: 6.31 µM,
O=C(NCc1ccco1)C1Cc2ccccc2CN1S(=O)(=O)c1ccccc1F (stereo unspecified),"inconclusive [inhibitor, partial curve]",
CN1CCN(c2ncc3nc(-c4cn(C)c5ccccc45)c(=O)n(C)c3n2)CC1,"inconclusive [inhibitor, single point]",
O=C1Nc2ccccc2SC(c2ccccc2)C1O (stereo unspecified),"inconclusive [inhibitor, partial curve]",
CC(=O)OCC1OC(C#Cc2ccccc2)C=CC1OC(C)=O (stereo unspecified),,inactive: 2.3% [at 11.4 µM] and inactive: -1.8% [at 11.4 µM]
CN(C)CCOc1nc(-c2ccccc2)nc2c1oc1ccccc12,inactive,
Cc1cc(N2CCOCC2)nc2ccc(NC(=O)C3CCC(C)CC3)cc12 (stereo unspecified),inactive,
CC1(C)c2ccccc2N2CC(=O)NC21/C=C/c1ccco1 (stereo unspecified),"inconclusive [inhibitor, full curve]",
CCC(=O)/C=C/C1C(C)=CCCC1(C)C (stereo unspecified),active: 25.1 µM,
